Assay results reported in PubChem BioAssay AID686978 (National Center for Advancing Translational Sciences (NCATS), 2013).
The campaign covered roughly 420,000 compounds. About 64,000 (15%) were called active. This list was built around the results that the source calls inconclusive (neither active nor inactive); the mix of calls is not that of the screen. Calls follow the shape of the dose curve; as a rule, active = well fitted inhibition curve with a large enough effect; inconclusive = small, poorly fitted or top-dose-only effect; inactive = flat fitted curve, though single readings scatter. Potencies of inconclusive entries are left out as doubtful fits.

Test: qHTS for Inhibitors of human tyrosyl-DNA phosphodiesterase 1 (TDP1): qHTS in cells in absence of CPT; also: nearly all actives have a fitted effect of over 55% in size
Settings: DT40 Tdp1-/- hTDP1 cells, no CPT, ATP luminescence, 48 h; activity change, negative = growth inhibition: at 46.2 µM (top of the series) unless noted
Procedure, shortened: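 No-CPT arm: Tdp1-/-;hTDP1 DT40 cells (400/well) plus compounds, incubated ≥48 hr at 37 °C. Readout CellTiter-Glo luminescence.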
% is scaled to controls: 0 for no effect and ±100 for the full control effect; potency is read from the fitted curve at half-maximal effect; tags tell the direction and shape of the fitted curve.

SMILES | Potency | activity change, negative = growth inhibition
COC(c1ccccc1)c1c(-c2ccccc2)nn(C)c1Cl (stereo not given) | inconclusive [inhibitor, full curve] | 
Cc1c(Cl)cnc(NC(=O)COC(=O)C2CCCC2)c1Cl | inactive | 
O=c1cc(O)n(-c2ccc(Cl)cc2)c(=S)[nH]1 | inactive | 
C/C(=N\NC(=O)c1c(C)nc2ccccn12)c1ccco1 | inactive | 
CCOC(=O)c1c(C)[nH]c(C(=O)COC(=O)c2ccc(O)cc2)c1C | inconclusive [inhibitor, single point] | 
CCNC(=S)Nc1ccc(-c2nc3ccccc3[nH]2)cc1 | inconclusive [inhibitor, single point] | 
Cc1ccccc1CSCCNC(=O)CSCc1ccc([N+](=O)[O-])cc1 | inconclusive [inhibitor, partial curve] | 
N#Cc1c(C(F)(F)F)cc(-c2cccs2)nc1SCC(=O)Nc1ccccc1F | inconclusive [inhibitor, single point] | 
Cc1ccc(S(=O)(=O)N2[C@@H](c3ccccc3)C(C(=O)O)=CC[C@H]2c2ccc(Cl)c(Cl)c2)cc1 | inactive | 
O=C(Nc1cccc(F)c1)N1CCN(C/C=C/c2ccccc2)CC1 | inactive | 
CCn1cc(S(=O)(=O)c2ccccc2)c(=O)c2cc(F)c(N3CCCC3)cc21 | inconclusive [inhibitor, single point] | 
CSc1cccc(-c2nnc(NC(=O)c3cccc(N4C(=O)CCC4=O)c3)o2)c1 | inactive | 
COc1ccccc1OCc1nc(C#N)c(NCc2ccco2)o1 | inactive | 
Cc1cc(C)cc(NS(=O)(=O)c2ccc3[nH]cc(C(=O)NC4CCCCC4)c(=O)c3c2)c1 | active: 16.4 µM | 
O=C(Nc1cc([N+](=O)[O-])ccc1O)c1cccc([N+](=O)[O-])c1 | inconclusive [inhibitor, single point] | 
COc1ccc(Nc2nc3cc(-c4ccsc4)sc3c(=O)n2C)cc1OC | inconclusive [inhibitor, partial curve, poor fit] | 
Cn1cc(CCC(=O)N2CCCC(C(=O)c3cccc4ccccc34)C2)cn1 (stereo not given) | inconclusive [inhibitor, single point] | 
Cc1ccc(NC(=O)Cn2c(O)c(N=NC(N)=O)c3ccccc32)cc1 | inconclusive [inhibitor, single point] | 
O=c1cc(-c2ccc(O)cc2)oc2c1ccc1ccccc12 | inactive | 
C/C(=N\NC(=O)c1c[nH]c2ccccc12)c1ccc(C)o1 | inactive | 
CCOc1ccc(NC(=O)CC2Nc3ccccc3NC2=O)cc1 (stereo not given) | inactive | 
CCNC(=O)C1(C)CCN1Cc1cc(-c2ccccc2)n(C)n1 (stereo not given) | inconclusive [inhibitor, partial curve] | 
CCN(CC)/C(Sc1ccccc1)=C(\C(Cl)=C(Cl)Cl)[N+](=O)[O-] | inconclusive [inhibitor, single point] | 
O=C(Nc1ccccc1)c1nnsc1S(=O)c1ccc(Cl)cc1 (stereo not given) | active: 0.82 µM | 

SMILES | Potency | activity change, negative = growth inhibition
CN(C)C(CNC(=O)c1ccc(S(=O)(=O)NCc2ccco2)cc1)c1ccccc1 (stereo not given) | inactive | 
CC(=O)c1c(-c2ccccc2)c2cc([N+](=O)[O-])ccc2[nH]c1=O | active: 14.6 µM | 
Clc1ccc2ncc(-c3nnnn3-c3ccccc3)c(-c3ccccc3)c2c1 | inconclusive [inhibitor, single point] | 
CC1Cc2ccccc2N1S(=O)(=O)c1cccc(C(=O)Nc2cccnc2)c1 (stereo not given) | inconclusive [inhibitor, single point] | 
COc1cc(/C(C)=N/NC(=O)c2cccc(S(=O)(=O)N3CCCC3)c2)cc(OC)c1OC | inconclusive [inhibitor, single point] | 
CCN1C(=O)N[C@@H](c2ccc(Br)cc2)C(C(=O)OC)=C1C | inconclusive [inhibitor, single point] | 
CCc1c(C)nc(SCc2nc(-c3ccccc3)no2)[nH]c1=O | inconclusive [inhibitor, single point] | 
Cc1ccc(S(=O)(=O)Oc2ccc(/C=N/NC(=O)c3c(Cl)cnn3C)cc2)cc1 | inconclusive [inhibitor, single point] | 
Cc1cnc(NC(=O)CC(C)c2ccccc2)s1 (stereo not given) | active: 5.17 µM | 
CCOc1ccc(CCNC(=O)C(C)N2C(=O)CC(C)(C)Sc3ccccc32)cc1 (stereo not given) | inconclusive [inhibitor, single point] | 
CN1CCN(C(=O)CCN2C(=O)/C(=C\c3ccc(Cl)cc3Cl)SC2=S)CC1 | active: 11.6 µM | 
Cc1ccc2cccc(NC(=S)NC(=O)c3ccnn3C)c2n1 |  | inconclusive: -35.5% [inhibitor]
CC(C)(C)c1ccc(C(=O)NCc2cccnc2)cc1 | inconclusive [inhibitor, partial curve] | 
Cc1cc(OCC(=O)NCC(c2ccc(F)cc2)N2CCOCC2)ccc1Cl (stereo not given) | inconclusive [inhibitor, partial curve] | 
CCOC(=O)CSc1ccc(-c2nc3ccccc3[nH]2)cn1 | inconclusive [inhibitor, partial curve] | 
O=C(OC1CCOC1=O)c1ccc(-c2nc3ccccc3s2)s1 (stereo not given) | inconclusive [inhibitor, single point] | 
Nc1nc(C(=O)N2CCOCC2)nn1S(=O)(=O)c1ccc(Cl)cc1 | inconclusive [inhibitor, single point] | 
COC(=O)Cc1c(C)nc2nc(-c3ccccc3)[nH]n2c1=O | inconclusive [inhibitor, full curve, poor fit] | 
Cc1onc(-c2ccccc2)c1C(=O)NC1CC1 | inactive | 
Cn1c(NCC(O)c2ccccc2)nc2c1c(=O)n(Cc1ccc(Cl)c(Cl)c1)c(=O)n2C (stereo not given) | active: 20.6 µM | 
COc1ccccc1N1CCN(C(c2cccs2)c2nnnn2C2CCCC2)CC1 (stereo not given) | inconclusive [inhibitor, single point] | 
CCOc1ccc2nc(SCC(=O)Nc3cccc(S(=O)(=O)NC4=NCCCCC4)c3)[nH]c2c1 | inconclusive [inhibitor, single point] | 
CCC(C)[C@H](NC(=O)NC1CCCc2ccccc21)C(=O)OC (stereo not given in full) | inactive | 
COc1cc(/C=C/C(=O)OCC(=O)Nc2cc(S(=O)(=O)N3CCOCC3)ccc2Cl)cc(OC)c1OC | inconclusive [inhibitor, single point] | 

SMILES | Potency | activity change, negative = growth inhibition
CCCN(CC(=O)Nc1ccccc1C)C(=O)c1ccc(N2CCCC2)c([N+](=O)[O-])c1 | inconclusive [inhibitor, single point] | 
CCCCOc1c(Br)cc(/C=C2\N=C(C)OC2=O)cc1OCC | inconclusive [inhibitor, single point] | 
O=C(c1ccc2c(c1)N(Cc1ccccc1F)C(=O)c1ccccc1S2(=O)=O)N1CCN(c2ccccc2F)CC1 | inconclusive [inhibitor, full curve] | 
Cc1ccc(NC(=S)NCC2CCCO2)cc1C (stereo not given) | inactive | 
Cc1ccc(C(=O)N(CC(=O)NC2CCCC2)c2ccc3c(c2)OCCO3)s1 | inconclusive [inhibitor, partial curve, poor fit] | 
COc1ccc2c(CN3CCN(c4ccccc4F)CC3)cc(=O)oc2c1 | inconclusive [inhibitor, single point] | 
Cc1ccc(S(=O)(=O)N2CCCCC2)cc1NS(=O)(=O)c1cccc(C(=O)O)c1 | inactive | 
CCOC(=O)c1ccsc1NC(=O)CCS(=O)(=O)c1ccccc1 | inconclusive [inhibitor, single point] | 
c1ccc(CCNc2nc3ccccc3s2)cc1 |  | inconclusive: -34% [inhibitor]
O=C(Cc1cccc(NC(=O)C2CCCN(C(=O)C3CCCC3)C2)c1)Nc1cccc(C(=O)N2CCCCC2)c1 (stereo not given) | inactive | 
Cc1cc(CNC(=O)c2cnn(-c3ncc4c(n3)-c3ccccc3CCC4)c2C2CC2)on1 | inconclusive [inhibitor, single point] | 
Cc1ccc(NC(=O)CCNC(=O)c2ccc([N+](=O)[O-])cc2)cc1C | inactive | 
CCOc1ccccc1OCCCC(=O)Nc1cccc(S(=O)(=O)N2CCOCC2)c1 | inconclusive [inhibitor, partial curve, poor fit] | 
O=C(Cn1c(=O)n(-c2cccc(Cl)c2)c(=O)c2sc3ccccc3c21)NC1CCCCC1 | inconclusive [inhibitor, partial curve, poor fit] | 
N#Cc1ccsc1NC(=O)c1ccc(Cl)c([N+](=O)[O-])c1 | active: 2.31 µM | 
Cc1ccc(OCC(=O)Nc2cccc(-c3nc4ccccc4o3)c2C)cc1C | inconclusive [inhibitor, partial curve] | 
Cc1ncc2c(c1CNS(=O)(=O)N(C)C)CCN(C(=O)/C=C/c1ccccc1Cl)C2 | inconclusive [inhibitor, single point] | 
CC(CCc1ccco1)NC(=O)Cn1ncc2c1-c1ccccc1OC2 (stereo not given) | inconclusive [inhibitor, single point] | 
CC1(c2nnc(Cc3ccccc3)o2)CC(c2ccccc2F)=NO1 (stereo not given) | inactive | 
Cc1ccc(NC(=O)c2c(Cl)n(C)c3ccccc23)cc1 | inconclusive [inhibitor, single point] | 
CCOC(=O)Cc1csc(NC(=O)c2cccc(N3C(=O)CCC3=O)c2)n1 | inactive | 
O=C(NCCCCCCNC(=O)c1ccccc1O)c1ccccc1O | active: 20.6 µM | 
